According to the supplement of paper PMC11417369:
± gives the standard deviation of the averaged measurements. Some of the results follow.

Test system: PfAP2-LT AP2 domain (GST-tagged)
Assay: gcPBM binding intensity (ln(normalized median fluorescence intensity)); higher = stronger DNA binding
Method in brief: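 Probes on an Agilent 4 × 180k array were primer-extended, double-stranded and 36 bp long, taken from intergenic genomic regions, with negative controls added. GST-tagged P. falciparum DNA-binding domains from E. coli, about 25 μg on average, were applied to the array for 1 h in 1× PBS containing 1% milk, 0.2 mg/ml BSA, 0.5% salmon testes DNA and 0.03% Triton X-100. Binding intensity, obtained after Alexa488 anti-GST antibody detection and a 488 nm scan, is the highest Masliner-normalised natural-log median intensity across replicate spots of either probe orientation.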

In order of rising “gcPBM binding intensity (ln)” value:
1. TTTTGTTCTAATATGGGAACATAAATATTAAATATA [CACACA_negctrl_site1787]  8.14 ± 0.48
2. TATTTTACTTTAAAAATGGAAAAAAAAAAGAATATT [CACACA_negctrl_site1360]  8.16 ± 0.54
3. CTTTAAATTAATAAAAGTACATTATTTATATATTTT [XGTACX_site4808]  8.25 ± 0.59
4. TTTATATATTTTTATCTTGATAATAATGTTTTAGAA [TGCATGCA_negctrl_site300]  8.27 ± 0.44
5. ATTAATAAATTCAATTGTACTTGTTTATACATAAAA [XGTACX_site3733]  8.31 ± 0.42
6. ATTTATGTTAATAAGTGTACAATAAATTTTTTTTAT [XGTACX_site7658]  8.4 ± 0.46
7. TATAATAAAATTTTTACACACTTTAAAAAAAAAAAA [CACACA_site524]  8.4 ± 0.54
8. TATGTTAAAAAAAAAAAAAAGAAAAAAATAAAAGGA [CACACA_negctrl_site119]  8.43 ± 0.55
9. TTTTTTTGTTAAAAGGTGCTAATATATATAAGTGCT  8.44 ± 0.42
10. TATTTTTTATTTTAAATCCTCTGATATTTAATTTGT [TGCATGCA_negctrl_site84]  8.48 ± 0.49
11. GTGTCTTTTATTAAATGTACATATTCATAGATAAAA [XGTACX_site8578]  8.49 ± 0.3
12. CTTTATACATGACATAGTACCCATTTTAGATTTGAA [XGTACX_site5240]  8.51 ± 0.46
13. TATGGTTTTAAAAAATGTACGCAAGTGCGTTAATTT [XGTACX_site3945]  8.54 ± 0.33
14. ATACAAACAATTATTTGTACATAAAATTTTTTTTTT [XGTACX_site90]  8.54 ± 0.53
15. ATGTATTTTTAAAAATATAAATTATGTAACTTGTGA [XGTACX_negctrl_site620]  8.54 ± 0.5
16. TAATATGTTTATGGTAACATACAAAAATGTATATAT [GTGCAC_negctrl_site204]  8.55 ± 0.37
17. AAAATGTCCCGTAGAAAATAAATTTATTACGCAATA [CACACA_negctrl_site1564]  8.6 ± 0.4
18. ATGAATCTTTTAAAAAGTACATGTGAAAAAAATAAA [XGTACX_site49]  8.6 ± 0.57
19. TATTAATTTAAATGGGTGCAAAACCTATATAAATAT  8.61 ± 0.46
20. AAAAAAAAAAAAAAATGTACATATATATAAATAAAA [XGTACX_site5574]  8.61 ± 0.58
21. AAGGGAAAAATATGGTTGCACTAAAAATATGTAATT [GTGCAC_site9605]  8.64 ± 0.54
22. TTTTCTCTAAAAAGGTGTACAACTAATAATGCACTG [XGTACX_site6074]  8.64 ± 0.45
23. TTAAAATGTTGTAACGTGCACATTTTGTGGAAATCA [GTGCAC_site9559]  8.66 ± 0.4
24. ATATTTAGGAAAAATAGTACACATTTAAATAATAAT [XGTACX_site7989]  8.68 ± 0.47
25. TTATAATTGTAAGGTAGTACATATAAATCAAATAAT [XGTACX_site7190]  8.69 ± 0.47
26. ATATAAATAAACAACTTTGTTGGCCTTCCAAAATAT [CACACA_negctrl_site1181]  8.69 ± 0.43
27. TAATAAATAAAAATAGAACACACATATGTTTTTTTT [CACACA_site9185]  8.7 ± 0.47
28. ATATATATATAATATTGTACGAAAAAAAATAAAAAA [XGTACX_site974]  8.7 ± 0.47
29. TTATTTTTTTGGAATTCACACACAAAAAAAAAAATA [CACACA_site8650]  8.72 ± 0.38
30. AAATATAATTAATGATGTACACTTATAGATATTGAT [XGTACX_site8435]  8.75 ± 0.41
31. TTATGGTGCAACATTATGCACACCGTTAAATAACTA [CACACA_site3846]  8.76 ± 0.4
32. TACTGATATAATATAACCGTTTATGTGTATTTTTTA [XGTACX_negctrl_site81]  8.76 ± 0.51
33. ATAACAAAAAAAAAGGTGCTACAAAATGAATAAAAA [GTGCAC_site9659]  8.79 ± 0.56
34. TTATATATTTATATATGTACACATTTTACCATTTTT [XGTACX_site2142]  8.8 ± 0.47
35. TTTTTTTTTTTTACATGTACATATGAATTATAATAT [XGTACX_site5016]  8.8 ± 0.47
36. ATTGTCATCATTATATGTACGTAAAAGAATATAGAT [XGTACX_site3117]  8.81 ± 0.44
37. TTATTTTATTTTTGTGCACACTGATAAATTGAAAAG [CACACA_site2949]  8.82 ± 0.49
38. AATATAAATAATTATACACACTTAATATATATATAC [CACACA_site5533]  8.83 ± 0.44
39. TATATATATATGTAATGTACATAAATTTTATACCTT [XGTACX_site6991]  8.84 ± 0.36
40. GTCCCTATAAGGGGAACACACATAAATGAATATATA [CACACA_site1024]  8.84 ± 0.53
41. TTATGGTGCATGAAATCACACATTGATATATATGCT [CACACA_site5352]  8.85 ± 0.46
42. TTAATAAAACTAACACGTACACATATATAATATTAT [XGTACX_site3260]  8.85 ± 0.37
43. ACATTTAAATAATATGTGCACAGCTATATTTTCTTT [GTGCAC_site9562]  8.86 ± 0.48
44. TAGAATGAAAAAAAAGCATGCGGGCAAAAATTTTTA [TGCATGCA_site926]  8.87 ± 0.47
45. ATTTATTTCTTGTTAGTGCACTTTCTTTGGTAAAAT  8.87 ± 0.4
46. ATATAAATATTAATTACACACAAAAAAAAAAAAAAA [CACACA_site6671]  8.88 ± 0.43
47. AAATATATATATATATATATAAATATATACATATAT [TGCATGCA_negctrl_site517]  8.89 ± 0.23
48. TTGTTTAAGTCACGAACACACATATATCATCAATTT [CACACA_site986]  8.9 ± 0.36
49. TATATTAATTATAAGACACACATATAGTAATAGAAA [CACACA_site2056]  8.9 ± 0.43
50. CAGTAGTATATACTATGTACATATTTATATTATATT [XGTACX_site4964]  8.91 ± 0.4
51. TTATATGCATAAAAAGGTACACATATATAAATAAAT [XGTACX_site6894]  8.91 ± 0.4
52. TATCCCCTTGTCCATATTAATTGTGACATCATATAT [XGTACX_negctrl_site9]  8.93 ± 0.45
53. AATAAGAAAACAAATGCACACCATTTATATAGATTA [CACACA_site8261]  8.94 ± 0.43
54. TAAAAGTTCACCTGTACACACATATAAATATGTACA [CACACA_site6901]  8.95 ± 0.33
55. TATATTCATAATATTACACACGTTCATTTATTTTAA [CACACA_site2031]  8.96 ± 0.42
56. TTCAAATATATGTTTTCACACACAAAAGAAATGAAA [CACACA_site8671]  8.96 ± 0.39
57. TACATATATATATATGTACACACATTAATAAAAAAA [CACACA_site9058]  8.97 ± 0.41
58. ATTTATGAAAAATGTACACACATCAAATGCTTATAT [CACACA_site4068]  8.97 ± 0.41
59. CGTTTTCTATATCATTGTACATATTCATGTGTAAAT [XGTACX_site2741]  8.98 ± 0.36
60. ATATTTTATTTTAATACACACAAGTTATATAACCAC [CACACA_site6508]  9 ± 0.41
61. CGTGGAAAAAAAAACACACACAAAAAAAAAAAAAAA [CACACA_site3997]  9 ± 0.62
62. ACATATTTTTACTTTTGTACATATTTTTTAATTTTC [XGTACX_site640]  9.01 ± 0.48
63. ATATTTATATATTGCACACAAAAAAAAAAAAAAATC [CACACA_site1629]  9.02 ± 0.47
64. AATTGAGAAGTGTGTTGTACATAATGGCACATACCT [XGTACX_site1370]  9.03 ± 0.39
65. ATTTATTTTGTTGTTGTTTTTATTTGATTGTTTTAT [CACACA_negctrl_site1275]  9.04 ± 0.47
66. GTATATTACATAAAATGTACATAAAAAGCGGAAAAG [XGTACX_site6905]  9.05 ± 0.47
67. GAAAGAAGCATAAATGTACACACATATTTATATATT [CACACA_site8368]  9.06 ± 0.45
68. TTTCTATATAGATTTGCACACATAAAAATGCTTATA [CACACA_site2390]  9.07 ± 0.35
69. TATTCTCGTTCTCATACACACAAAATATACATACAC [CACACA_site7278]  9.07 ± 0.38
70. ATGTGTATATATATGTGTACATAATTTGTGTTATTC [XGTACX_site2509]  9.08 ± 0.41
71. TTTGTGTAGGTGTGTAGTACATATAACTTATAACAT [XGTACX_site7885]  9.09 ± 0.31
72. ATGGGTTAGGCGTGTACACAATTGTATGGTTTAATA [CACACA_site4812]  9.09 ± 0.33
73. ACATTTAAAATTTATGCATGTGGTGTTTTGTATATA [TGCATGCA_site534]  9.11 ± 0.48
74. GTTTGAATGGCGCACTGTACACATATATACATATAG [XGTACX_site8619]  9.13 ± 0.26
75. ACCTTAAAAATAACTGCACACAAAAATAAATACCTT [CACACA_site8902]  9.16 ± 0.38
76. ACAAAATTATGTAGATGTACAGACATAGAAAGAGAT [XGTACX_site3096]  9.17 ± 0.45
77. AAACAAATAGACACTTGTACGTAAGTAAATAATTAA [XGTACX_site6157]  9.18 ± 0.56
78. GGGTTAATATTTACTACACACACTTAAAATATGTAT [CACACA_site47]  9.18 ± 0.39
79. ATATATATATATATATGTACATATATATATTATATT [XGTACX_site6303]  9.19 ± 0.18
80. AATGGAAAAGGTAGTTGTACAACATGTTAAAATGGT [XGTACX_site1312]  9.2 ± 0.42
81. TAGGTGCCTTTTTTCACACACATGTCAACTAAATAT [CACACA_site2656]  9.22 ± 0.44
82. ACGTAAACATGTAGAAGGCATTACACAATGGTATAC [TGCATGCA_negctrl_site512]  9.3 ± 0.35
83. AAATTTATAAAGAACACACACATATAAATATAAATA [CACACA_site6174]  9.37 ± 0.41
84. TAATAAAATGTACACGCATGCAATAGAATATAAAGT [TGCATGCA_site905]  9.45 ± 0.3
85. AACATATATAAATACACACACATATATATATGAAAT [CACACA_site4312]  9.51 ± 0.26
86. AAAATTAACCGTAACACACACACATATAAATATGTA [CACACA_site7791]  9.57 ± 0.23
87. GAGTGAAATATGCAAACACACACGAGAAAAATGTAT [CACACA_site3196]  9.57 ± 0.37
88. AATATAAATAAACACACACACATATATATATATATT [CACACA_site2906]  9.79 ± 0.21
89. AACAACCAAACGCACACACACAAAAAAAAAAATATA [CACACA_site6326]  9.88 ± 0.57
